Measured values reported in the supplement of paper PMC4967469.
A lower IC50 marks a more sensitive line; where the fit passes the top or lowest dose, that dose stands as a limit. AUC is the area under the same curve over the 256-fold range up to the top dose, as a fraction; the more sensitive the line, the further below 1. For some of these results: Where the top dose is marked as inferred, it was derived from the fitted curves, not read from the paper. For some of these results: Drugs with an entry number were screened twice under separate entries, and the two screens often disagree.

Columns and labels:
Assay in all cases: Viability of human cancer cell lines after 72 h of drug (GDSC screen)
[1] = compound: C/C(O)=C(\C#N)C(=O)Nc1cc(Br)ccc1Br [LFM-A13]; details: top dose 16 µM; top dose inferred
Experimental: (§1)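 Human cancer cell lines in 384-well plates, medium with 10% serum, drug for 72 h over a 256-fold dose range (nine 2-fold or five 4-fold steps up to the top dose). Adherent lines were fixed and stained with the nucleic acid dye Syto60, suspension lines read with resazurin; signal relative to control wells, capped at 0 and 100%. One two-parameter sigmoid per drug and line, fitted in a mixed model over all curves with the slope shared within a line.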

[2] = compound: CC(C)c1ccccc1Cc1cc(C(=O)Nc2ccc(S(=O)(=O)c3ccccc3C(C)(C)C)cc2)c(O)c(O)c1O [TW-37]; details: top dose 5 µM
Experimental: as §1

[3] = compound: CC(O)(CS(=O)(=O)c1ccc(F)cc1)C(=O)Nc1ccc(C#N)c(C(F)(F)F)c1 [Bicalutamide]; details: top dose inferred
Experimental: as §1

[4] = compound: CCNC(=O)c1noc(-c2cc(C(C)C)c(O)cc2O)c1-c1ccc(CN2CCOCC2)cc1 [AUY922]; details: top dose 0.256 µM; top dose inferred
Experimental: as §1

[5] = compound: Cc1ccc(Nc2cc(-c3cccc(N4C(=O)c5ccccc5C4=O)c3)ncn2)cc1NS(C)(=O)=O [KIN001-270]; details: top dose 20 µM; top dose inferred
Experimental: as §1

[6] = compound: NC(=O)c1cccc(-c2cc(Nc3ccc(OC(F)(F)F)cc3)ncn2)c1 [GNF-2]; details: top dose 1.28 µM; top dose inferred
Experimental: as §1

[7] = compound: Nc1ccn([C@@H]2O[C@H](CO)[C@@H](O)C2(F)F)c(=O)n1 [Gemcitabine]; details: top dose 1.024 µM
Experimental: as §1

[8] = compound: O=S(=O)(c1ccccc1)N(CC(F)(F)F)c1ccc(C(O)(C(F)(F)F)C(F)(F)F)cc1 [T0901317]; details: top dose 10.24 µM; top dose inferred
Experimental: as §1

[9] = compound: S=C(NCc1ccc2c(c1)OCO2)N1CCN(c2ncnc3c2oc2ccccc23)CC1 [MP470]; details: top dose 20 µM; top dose inferred
Experimental: as §1

[10] = top dose 1.024 µM, screen: GDSC drug entry 150
[11] = top dose 10 µM, screen: GDSC drug entry 1502

Cell Line | AUC [1] | IC50 [1] | AUC [2] | IC50 [2] | AUC [3, 10] | IC50 [3, 10] | AUC [3, 11] | IC50 [3, 11] | AUC [4] | IC50 [4] | AUC [5] | IC50 [5] | AUC [6] | IC50 [6] | AUC [7] | IC50 [7] | AUC [8] | IC50 [8] | AUC [9] | IC50 [9]
KG-1 (acute myeloid leukaemia, suspension) | 0.99 | > 16 µM | 0.665 | 0.85 µM | 0.99 | > 1.02 µM | 0.977 | > 10 µM | 0.685 | 0.0492 µM | 0.939 | > 20 µM | 0.985 | > 1.28 µM | 0.433 | 0.0428 µM | 0.945 | > 10.2 µM | 0.699 | 4.23 µM
KU812 (chronic myeloid leukaemia, suspension) | 0.87 | 12.7 µM | 0.772 | 1.77 µM | 0.985 | > 1.02 µM | 0.975 | > 10 µM | 0.56 | 0.0229 µM | 0.923 | > 20 µM | 0.988 | > 1.28 µM | 0.13 | 0.00504 µM | 0.874 | 8.46 µM | 0.197 | 0.176 µM
LB996-RCC (kidney, adherent) | 0.936 | > 16 µM | 0.443 | 0.213 µM | 0.982 | > 1.02 µM | 0.965 | > 10 µM | 0.567 | 0.0251 µM | 0.98 | > 20 µM | 0.964 | > 1.28 µM | 0.457 | 0.0479 µM | 0.983 | > 10.2 µM | 0.899 | > 20 µM
LB1047-RCC (kidney, adherent) | 0.89 | > 16 µM | 0.492 | 0.297 µM | 0.938 | > 1.02 µM | 0.975 | > 10 µM | 0.614 | 0.0343 µM | 0.973 | > 20 µM | 0.977 | > 1.28 µM | 0.167 | 0.00528 µM | 0.973 | > 10.2 µM | 0.895 | > 20 µM
LC-2-ad (lung adenocarcinoma, adherent) | 0.952 | > 16 µM | 0.562 | 0.463 µM | 0.981 | > 1.02 µM | 0.978 | > 10 µM | 0.397 | 0.00827 µM | 0.943 | > 20 µM | 0.91 | > 1.28 µM | 0.039 | < 0.004 µM | 0.981 | > 10.2 µM | 0.973 | > 20 µM
LNCaP-Clone-FGC (prostate, adherent) | 0.947 | > 16 µM | 0.626 | 0.735 µM | 0.975 | > 1.02 µM | 0.882 | > 10 µM | 0.683 | 0.0562 µM | 0.957 | > 20 µM | 0.984 | > 1.28 µM | 0.83 | 0.774 µM | 0.962 | > 10.2 µM | 0.752 | 7.5 µM
LOXIMVI (melanoma, semi-adherent) | 0.98 | > 16 µM | 0.51 | 0.332 µM | 0.989 | > 1.02 µM | 0.977 | > 10 µM | 0.561 | 0.023 µM | 0.986 | > 20 µM | 0.985 | > 1.28 µM | 0.236 | 0.0123 µM | 0.983 | > 10.2 µM | 0.96 | > 20 µM
LS-411N (large intestine, adherent) | 0.957 | > 16 µM | 0.726 | 1.6 µM | 0.979 | > 1.02 µM | 0.979 | > 10 µM | 0.558 | 0.0238 µM | 0.977 | > 20 µM | 0.89 | > 1.28 µM | 0.396 | 0.0312 µM | 0.975 | > 10.2 µM | 0.965 | > 20 µM
LXF-289 (lung adenocarcinoma, adherent) | 0.967 | > 16 µM | 0.39 | 0.157 µM | 0.986 | > 1.02 µM | 0.962 | > 10 µM | 0.522 | 0.0183 µM | 0.984 | > 20 µM | 0.984 | > 1.28 µM | 0.238 | 0.0113 µM | 0.973 | > 10.2 µM | 0.944 | > 20 µM
MZ2-MEL (melanoma, adherent) | 0.957 | > 16 µM | 0.471 | 0.256 µM | 0.983 | > 1.02 µM | 0.933 | > 10 µM | 0.496 | 0.0156 µM | 0.963 | > 20 µM | 0.967 | > 1.28 µM | 0.399 | 0.0322 µM | 0.983 | > 10.2 µM | 0.835 | 16.5 µM
MZ7-mel (melanoma, adherent) | 0.972 | > 16 µM | 0.603 | 0.606 µM | 0.987 | > 1.02 µM | 0.985 | > 10 µM | 0.636 | 0.0385 µM | 0.987 | > 20 µM | 0.983 | > 1.28 µM | 0.441 | 0.0438 µM | 0.979 | > 10.2 µM | 0.919 | > 20 µM
NB7 (neuroblastoma, adherent) | 0.957 | > 16 µM | 0.374 | 0.138 µM | 0.985 | > 1.02 µM | 0.939 | > 10 µM | 0.684 | 0.0539 µM | 0.95 | > 20 µM | 0.986 | > 1.28 µM | 0.886 | > 1.02 µM | 0.952 | > 10.2 µM | 0.059 | < 0.0781 µM
NCI-H23 (lung adenocarcinoma, adherent) | 0.988 | > 16 µM | 0.545 | 0.414 µM | 0.986 | > 1.02 µM | 0.98 | > 10 µM | 0.815 | 0.139 µM | 0.981 | > 20 µM | 0.984 | > 1.28 µM | 0.656 | 0.173 µM | 0.935 | > 10.2 µM | 0.975 | > 20 µM
NCI-H322M (lung adenocarcinoma, suspension) | 0.977 | > 16 µM | 0.889 | > 5 µM | 0.984 | > 1.02 µM | 0.981 | > 10 µM | 0.975 | > 0.256 µM | 0.987 | > 20 µM | 0.983 | > 1.28 µM | 0.983 | > 1.02 µM | 0.987 | > 10.2 µM | 0.973 | > 20 µM
NCI-H1355 (lung adenocarcinoma, adherent) | 0.893 | > 16 µM | 0.66 | 1.06 µM | 0.978 | > 1.02 µM | 0.954 | > 10 µM | 0.531 | 0.0201 µM | 0.974 | > 20 µM | 0.924 | > 1.28 µM | 0.134 | < 0.004 µM | 0.975 | > 10.2 µM | 0.906 | > 20 µM
NCI-H1395 (lung adenocarcinoma, adherent) | 0.971 | > 16 µM | 0.616 | 0.725 µM | 0.982 | > 1.02 µM | 0.961 | > 10 µM | 0.966 | > 0.256 µM | 0.955 | > 20 µM | 0.976 | > 1.28 µM | 0.956 | > 1.02 µM | 0.982 | > 10.2 µM | 0.97 | > 20 µM
NCI-H1648 (lung adenocarcinoma, adherent) | 0.952 | > 16 µM | 0.722 | 1.4 µM | 0.985 | > 1.02 µM | 0.971 | > 10 µM | 0.488 | 0.0148 µM | 0.959 | > 20 µM | 0.951 | > 1.28 µM | 0.7 | 0.244 µM | 0.982 | > 10.2 µM | 0.889 | > 20 µM
NCI-H1666 (lung adenocarcinoma, semi-adherent) | 0.983 | > 16 µM | 0.537 | 0.397 µM | 0.964 | > 1.02 µM | 0.937 | > 10 µM | 0.977 | > 0.256 µM | 0.987 | > 20 µM | 0.987 | > 1.28 µM | 0.977 | > 1.02 µM | 0.987 | > 10.2 µM | 0.967 | > 20 µM
OMC-1 (cervix, adherent) | 0.979 | > 16 µM | 0.617 | 0.665 µM | 0.988 | > 1.02 µM | 0.972 | > 10 µM | 0.451 | 0.0116 µM | 0.981 | > 20 µM | 0.984 | > 1.28 µM | 0.72 | 0.278 µM | 0.988 | > 10.2 µM | 0.957 | > 20 µM
RS4-11 (leukaemia, suspension) | 0.941 | > 16 µM | 0.459 | 0.243 µM | 0.988 | > 1.02 µM | 0.986 | > 10 µM | 0.494 | 0.0155 µM | 0.925 | > 20 µM | 0.989 | > 1.28 µM | 0.139 | 0.00547 µM | 0.892 | > 10.2 µM | 0.851 | 13.4 µM
SCC-15 (head and neck, adherent) | 0.923 | > 16 µM | 0.479 | 0.269 µM | 0.98 | > 1.02 µM | 0.959 | > 10 µM | 0.574 | 0.0273 µM | 0.932 | > 20 µM | 0.978 | > 1.28 µM | 0.604 | 0.136 µM | 0.977 | > 10.2 µM | 0.95 | > 20 µM
SK-MEL-2 (melanoma, adherent) | 0.97 | > 16 µM | 0.475 | 0.266 µM | 0.981 | > 1.02 µM | 0.982 | > 10 µM | 0.722 | 0.0701 µM | 0.987 | > 20 µM | 0.983 | > 1.28 µM | 0.905 | > 1.02 µM | 0.977 | > 10.2 µM | 0.902 | > 20 µM
SNU-C2B (large intestine, adherent) | 0.936 | > 16 µM | 0.47 | 0.252 µM | 0.977 | > 1.02 µM | 0.944 | > 10 µM | 0.481 | 0.014 µM | 0.966 | > 20 µM | 0.979 | > 1.28 µM | 0.872 | > 1.02 µM | 0.975 | > 10.2 µM | 0.921 | > 20 µM
